# Test results: the supplement of paper PMC8728848
# Some of the results follow.
# Tests used:
# Experiment in all cases: glycan array binding signal (z-score within array); higher = stronger binding
# Details in all cases: glycan notation: IUPAC condensed, linker removed
# [1] = molecular target: GlcNAc(a1-4)Gal(b1-4)GlcNAc(b1-3)Gal(b1-4)GlcNAc
# Summary of the method: (§1)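 Glycan array data came from 3228 arrays in the Consortium for Functional Glycomics database, and only arrays with an available protein sequence were kept. Glycan names were put into IUPAC-condensed notation, and columns mapping to the same glycan were averaged. The binding signal is a within-array Z-score, averaged across arrays of one protein sequence run at different concentrations or buffers and across linkers. A negative Z-score can be read as non-binding.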
# [2] = molecular target: GlcNAc(a1-4)Gal(b1-4)GlcNAc(b1-3)Gal(b1-4)GlcNAc(b1-3)Gal(b1-4)GlcNAc
# Summary of the method: as §1
# [3] = molecular target: GlcNAc(a1-4)Gal(b1-4)GlcNAc(b1-3)Gal(b1-4)[Fuc(a1-3)]GlcNAc(b1-3)Gal(b1-4)[Fuc(a1-3)]GlcNAc
# Summary of the method: as §1
# [4] = molecular target: GlcNAc(a1-6)Gal(b1-4)GlcNAc
# Summary of the method: as §1
# [5] = molecular target: GlcNAc(b1-2)Gal(b1-3)GalNAc
# Summary of the method: as §1
# [6] = molecular target: GlcNAc(b1-2)Gal(b1-3)GlcNAc
# Summary of the method: as §1
# [7] = molecular target: GlcNAc(b1-2)Man(a1-3)[GlcNAc(b1-2)Man(a1-6)]Man(b1-4)GlcNAc(b1-4)GlcNAc
# Summary of the method: as §1
# [8] = molecular target: GlcNAc(b1-2)Man(a1-3)[GlcNAc(b1-2)Man(a1-6)]Man(b1-4)GlcNAc(b1-4)[Fuc(a1-6)]GlcNAc
# Summary of the method: as §1
# [9] = molecular target: GlcNAc(b1-2)Man(a1-3)[GlcNAc(b1-4)][GlcNAc(b1-2)Man(a1-6)]Man(b1-4)GlcNAc(b1-4)GlcNAc
# Summary of the method: as §1
# [10] = molecular target: GlcNAc(b1-2)Man(a1-3)[GlcNAc(b1-4)][GlcNAc(b1-2)Man(a1-6)]Man(b1-4)GlcNAc(b1-4)[Fuc(a1-6)]GlcNAc
# Summary of the method: as §1
# [11] = molecular target: GlcNAc(b1-2)[GlcNAc(b1-4)]Man(a1-3)[GlcNAc(b1-2)Man(a1-6)]Man(b1-4)GlcNAc(b1-4)GlcNAc
# Summary of the method: as §1
# [12] = molecular target: GlcNAc(b1-2)[GlcNAc(b1-4)]Man(a1-3)[GlcNAc(b1-4)][GlcNAc(b1-2)Man(a1-6)]Man(b1-4)GlcNAc(b1-4)GlcNAc
# Summary of the method: as §1
# [13] = molecular target: GlcNAc(b1-2)[GlcNAc(b1-4)]Man(a1-3)[GlcNAc(b1-4)][GlcNAc(b1-2)[GlcNAc(b1-6)]Man(a1-6)]Man(b1-4)GlcNAc(b1-4)GlcNAc
# Summary of the method: as §1
# [14] = molecular target: GlcNAc(b1-2)[GlcNAc(b1-4)]Man(a1-3)[GlcNAc(b1-4)][GlcNAc(b1-2)[GlcNAc(b1-6)]Man(a1-6)]Man(b1-4)GlcNAc(b1-4)[Fuc(a1-6)]GlcNAc
# Summary of the method: as §1
# [15] = molecular target: GlcNAc(b1-2)[GlcNAc(b1-6)]Man(a1-6)[GlcNAc(b1-2)Man(a1-3)]Man(b1-4)GlcNAc(b1-4)GlcNAc
# Summary of the method: as §1
# [16] = molecular target: GlcNAc(b1-2)[GlcNAc(b1-6)]Man(a1-6)[GlcNAc(b1-2)Man(a1-3)]Man(b1-4)GlcNAc(b1-4)[Fuc(a1-6)]GlcNAc
# Summary of the method: as §1
# [17] = molecular target: GlcNAc(b1-2)[GlcNAc(b1-6)]Man(a1-6)[GlcNAc(b1-4)][GlcNAc(b1-2)Man(a1-3)]Man(b1-4)GlcNAc(b1-4)GlcNAc
# Summary of the method: as §1
# [18] = molecular target: GlcNAc(b1-3)Fuc
# Summary of the method: as §1
# [19] = molecular target: GlcNAc(b1-3)Gal
# Summary of the method: as §1
# [20] = molecular target: GlcNAc(b1-3)Gal(b1-3)GalNAc
# Summary of the method: as §1
# [21] = molecular target: GlcNAc(b1-3)Gal(b1-4)Glc
# Summary of the method: as §1
# [22] = molecular target: GlcNAc(b1-3)Gal(b1-4)GlcNAc
# Summary of the method: as §1
# [23] = molecular target: GlcNAc(b1-3)Gal(b1-4)GlcNAc(b1-2)Man(a1-3)[GlcNAc(b1-3)Gal(b1-4)GlcNAc(b1-2)Man(a1-6)]Man(b1-4)GlcNAc(b1-4)GlcNAc
# Summary of the method: as §1
# [24] = molecular target: GlcNAc(b1-3)Gal(b1-4)GlcNAc(b1-2)Man(a1-3)[GlcNAc(b1-3)Gal(b1-4)GlcNAc(b1-2)Man(a1-6)]Man(b1-4)GlcNAc(b1-4)[Fuc(a1-6)]GlcNAc
# Summary of the method: as §1
# [25] = molecular target: GlcNAc(b1-3)Gal(b1-4)GlcNAc(b1-2)[GlcNAc(b1-3)Gal(b1-4)GlcNAc(b1-6)]Man(a1-6)[GlcNAc(b1-3)Gal(b1-4)GlcNAc(b1-2)Man(a1-3)]Man(b1-4)GlcNAc(b1-4)GlcNAc
# Summary of the method: as §1
# [26] = molecular target: GlcNAc(b1-3)Gal(b1-4)GlcNAc(b1-3)Gal(b1-4)GlcNAc
# Summary of the method: as §1
# [27] = molecular target: GlcNAc(b1-3)Gal(b1-4)GlcNAc(b1-3)Gal(b1-4)GlcNAc(b1-2)Man(a1-3)[GlcNAc(b1-3)Gal(b1-4)GlcNAc(b1-3)Gal(b1-4)GlcNAc(b1-2)Man(a1-6)]Man(b1-4)GlcNAc(b1-4)GlcNAc
# Summary of the method: as §1
# [28] = molecular target: GlcNAc(b1-3)Gal(b1-4)GlcNAc(b1-3)Gal(b1-4)GlcNAc(b1-2)Man(a1-3)[GlcNAc(b1-3)Gal(b1-4)GlcNAc(b1-3)Gal(b1-4)GlcNAc(b1-2)Man(a1-6)]Man(b1-4)GlcNAc(b1-4)[Fuc(a1-6)]GlcNAc
# Summary of the method: as §1
# [29] = molecular target: GlcNAc(b1-3)Gal(b1-4)GlcNAc(b1-3)Gal(b1-4)GlcNAc(b1-2)[GlcNAc(b1-3)Gal(b1-4)GlcNAc(b1-3)Gal(b1-4)GlcNAc(b1-6)]Man(a1-6)[GlcNAc(b1-3)Gal(b1-4)GlcNAc(b1-3)Gal(b1-4)GlcNAc(b1-2)Man(a1-3)]Man(b1-4)GlcNAc(b1-4)[Fuc(a1-6)]GlcNAc
# Summary of the method: as §1
# [30] = molecular target: GlcNAc(b1-3)Gal(b1-4)GlcNAc(b1-3)Gal(b1-4)GlcNAc(b1-3)Gal(b1-4)GlcNAc(b1-2)Man(a1-3)[GlcNAc(b1-3)Gal(b1-4)GlcNAc(b1-3)Gal(b1-4)GlcNAc(b1-3)Gal(b1-4)GlcNAc(b1-2)Man(a1-6)]Man(b1-4)GlcNAc(b1-4)GlcNAc
# Summary of the method: as §1
# [31] = molecular target: GlcNAc(b1-3)Gal(b1-4)GlcNAc(b1-3)Gal(b1-4)GlcNAc(b1-3)Gal(b1-4)GlcNAc(b1-2)Man(a1-3)[GlcNAc(b1-3)Gal(b1-4)GlcNAc(b1-3)Gal(b1-4)GlcNAc(b1-3)Gal(b1-4)GlcNAc(b1-2)Man(a1-6)]Man(b1-4)GlcNAc(b1-4)[Fuc(a1-6)]GlcNAc
# Summary of the method: as §1
# [32] = molecular target: GlcNAc(b1-3)Gal(b1-4)GlcNAc(b1-3)Gal(b1-4)GlcNAc(b1-3)Gal(b1-4)GlcNAc(b1-2)[GlcNAc(b1-3)Gal(b1-4)GlcNAc(b1-3)Gal(b1-4)GlcNAc(b1-3)Gal(b1-4)GlcNAc(b1-6)]Man(a1-6)[GlcNAc(b1-3)Gal(b1-4)GlcNAc(b1-3)Gal(b1-4)GlcNAc(b1-3)Gal(b1-4)GlcNAc(b1-2)Man(a1-3)]Man(b1-4)GlcNAc(b1-4)[Fuc(a1-6)]GlcNAc
# Summary of the method: as §1
# [33] = molecular target: GlcNAc(b1-3)Gal(b1-4)GlcNAc(b1-3)Gal(b1-4)GlcNAc(b1-3)Gal(b1-4)GlcNAc(b1-3)Gal(b1-4)GlcNAc(b1-2)Man(a1-3)[GlcNAc(b1-3)Gal(b1-4)GlcNAc(b1-3)Gal(b1-4)GlcNAc(b1-3)Gal(b1-4)GlcNAc(b1-3)Gal(b1-4)GlcNAc(b1-2)Man(a1-6)]Man(b1-4)GlcNAc(b1-4)GlcNAc
# Summary of the method: as §1
# [34] = molecular target: GlcNAc(b1-3)Gal(b1-4)GlcNAc(b1-3)Gal(b1-4)GlcNAc(b1-3)Gal(b1-4)GlcNAc(b1-3)Gal(b1-4)GlcNAc(b1-2)Man(a1-3)[GlcNAc(b1-3)Gal(b1-4)GlcNAc(b1-3)Gal(b1-4)GlcNAc(b1-3)Gal(b1-4)GlcNAc(b1-3)Gal(b1-4)GlcNAc(b1-2)Man(a1-6)]Man(b1-4)GlcNAc(b1-4)[Fuc(a1-6)]GlcNAc
# Summary of the method: as §1
# [35] = molecular target: GlcNAc(b1-3)Gal(b1-4)GlcNAc(b1-3)Gal(b1-4)GlcNAc(b1-3)Gal(b1-4)GlcNAc(b1-3)Gal(b1-4)GlcNAc(b1-2)[GlcNAc(b1-3)Gal(b1-4)GlcNAc(b1-3)Gal(b1-4)GlcNAc(b1-3)Gal(b1-4)GlcNAc(b1-3)Gal(b1-4)GlcNAc(b1-6)]Man(a1-6)[GlcNAc(b1-3)Gal(b1-4)GlcNAc(b1-3)Gal(b1-4)GlcNAc(b1-3)Gal(b1-4)GlcNAc(b1-3)Gal(b1-4)GlcNAc(b1-2)Man(a1-3)]Man(b1-4)GlcNAc(b1-4)[Fuc(a1-6)]GlcNAc
# Summary of the method: as §1
# [36] = molecular target: GlcNAc(b1-3)Gal(b1-4)GlcNAc(b1-3)Gal(b1-4)GlcNAc(b1-3)GalNAc
# Summary of the method: as §1
# [37] = molecular target: GlcNAc(b1-3)Gal(b1-4)GlcNAc(b1-3)GalNAc
# Summary of the method: as §1
# [38] = molecular target: GlcNAc(b1-3)Gal(b1-4)GlcNAc(b1-3)[GlcNAc(b1-3)Gal(b1-4)GlcNAc(b1-3)]GalNAc
# Summary of the method: as §1
binder,measurement,setting,value
"Epa7 (Candida glabrata), Q6DTM6_CANGB (protein) MGSSHHHHHHSSGLVPRGSHMKDDYSSFLSNNNLGWTDPTEFPLGCSPNVTTPKNGLSMELYSYDLRKNGSYPCWDAAYLDPNYPRTGYKSHRLLAKVDGVTGNINFYYHATKGCTPEIDHLPASYNYPKPLTMTNFTMLLYGYFKPKVTGYHTFTISADDLLFVNFGAGNAFDCCKRESSADDFGNYQAYAVWGSQTAKDDLTVHLDAGLYYPIRIFFNNREYDAELSLTLKTESDSNPVIDFSDYFYSFDDTKDGCPGLVSYDTS",glycan array binding signal (z-score),[1],-0.235
same,glycan array binding signal (z-score),[2],-0.237
same,glycan array binding signal (z-score),[3],-0.087
same,glycan array binding signal (z-score),[4],1.27
same,glycan array binding signal (z-score),[5],-0.197
same,glycan array binding signal (z-score),[6],-0.273
same,glycan array binding signal (z-score),[7],-0.248
same,glycan array binding signal (z-score),[8],-0.232
same,glycan array binding signal (z-score),[9],-0.245
same,glycan array binding signal (z-score),[10],-0.244
same,glycan array binding signal (z-score),[11],-0.226
same,glycan array binding signal (z-score),[12],-0.241
same,glycan array binding signal (z-score),[13],-0.243
same,glycan array binding signal (z-score),[14],-0.238
same,glycan array binding signal (z-score),[15],-0.238
same,glycan array binding signal (z-score),[16],-0.224
same,glycan array binding signal (z-score),[17],-0.242
same,glycan array binding signal (z-score),[18],-0.233
same,glycan array binding signal (z-score),[19],-0.257
same,glycan array binding signal (z-score),[20],-0.197
same,glycan array binding signal (z-score),[21],-0.242
same,glycan array binding signal (z-score),[22],-0.258
same,glycan array binding signal (z-score),[23],-0.233
same,glycan array binding signal (z-score),[24],-0.207
same,glycan array binding signal (z-score),[25],-0.114
same,glycan array binding signal (z-score),[26],-0.259
same,glycan array binding signal (z-score),[27],-0.208
same,glycan array binding signal (z-score),[28],-0.233
same,glycan array binding signal (z-score),[29],-0.224
same,glycan array binding signal (z-score),[30],-0.235
same,glycan array binding signal (z-score),[31],-0.226
same,glycan array binding signal (z-score),[32],-0.229
same,glycan array binding signal (z-score),[33],-0.233
same,glycan array binding signal (z-score),[34],-0.21
same,glycan array binding signal (z-score),[35],-0.234
same,glycan array binding signal (z-score),[36],-0.221
same,glycan array binding signal (z-score),[37],-0.24
same,glycan array binding signal (z-score),[38],-0.225
